This is an account of results in publication PMC9911399, “Two distinct binding modes provide the RNA-binding protein RbFox with extraordinary sequence specificity”.

Changes are numbered by the printed parent chain; changes in the protein carry UniProt numbers. The list shows a part of the results.

First the molecules themselves.
T1: RBFOX1 RRM RbFoxmut (Fox-RRM*) (Homo sapiens, UniProt Q9NWB1 109-208, R118D;E147R;N151S;E152T)
T1 sequence: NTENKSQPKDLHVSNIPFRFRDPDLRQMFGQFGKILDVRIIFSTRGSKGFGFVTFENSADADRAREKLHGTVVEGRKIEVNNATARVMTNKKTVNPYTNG

B1: UCCUGGC (DNA:RNA)
RNA: GGGAGACCGGAAUUCAGAUUGUCCUCCUGGCUUAAAUCCCGUCGUAGCCACCA
DNA 1: CAATCTGAATTCCGGTCTCCC
DNA 2: TGGTGGCTACGACGGGATT
B2: UAUAGUG (DNA:RNA)
RNA: B1 RNA with C26A, C27U, U28A, G30U, C31G
DNA 1: CAATCTGAATTCCGGTCTCCC
DNA 2: TGGTGGCTACGACGGGATT
B3: AUCUUAU (DNA:RNA)
RNA: B1 RNA with U25A, C26U, G29U, G30A, C31U
DNA 1: CAATCTGAATTCCGGTCTCCC
DNA 2: TGGTGGCTACGACGGGATT
B4: GGCUUAU (DNA:RNA)
RNA: B1 RNA with U25G, C26G, G29U, G30A, C31U
DNA 1: CAATCTGAATTCCGGTCTCCC
DNA 2: TGGTGGCTACGACGGGATT
B5: GCGGCUU (DNA:RNA)
RNA: B1 RNA with U25G, C27G, U28G, G29C, G30U, C31U
DNA 1: CAATCTGAATTCCGGTCTCCC
DNA 2: TGGTGGCTACGACGGGATT
B6: GACGAAC (DNA:RNA)
RNA: B1 RNA with U25G, C26A, U28G, G29A, G30A
DNA 1: CAATCTGAATTCCGGTCTCCC
DNA 2: TGGTGGCTACGACGGGATT
B7: CUAGGAU (DNA:RNA)
RNA: B1 RNA with U25C, C26U, C27A, U28G, G30A, C31U
DNA 1: CAATCTGAATTCCGGTCTCCC
DNA 2: TGGTGGCTACGACGGGATT
B8: ACGUGAU (DNA:RNA)
RNA: B1 RNA with U25A, C27G, G30A, C31U
DNA 1: CAATCTGAATTCCGGTCTCCC
DNA 2: TGGTGGCTACGACGGGATT
B9: CGGGCGU (DNA:RNA)
RNA: B1 RNA with U25C, C26G, C27G, U28G, G29C, C31U
DNA 1: CAATCTGAATTCCGGTCTCCC
DNA 2: TGGTGGCTACGACGGGATT
B10: ACGUUCC (DNA:RNA)
RNA: B1 RNA with U25A, C27G, G29U, G30C
DNA 1: CAATCTGAATTCCGGTCTCCC
DNA 2: TGGTGGCTACGACGGGATT
B11: GCUUCCU (DNA:RNA)
RNA: B1 RNA with U25G, C27U, G29C, G30C, C31U
DNA 1: CAATCTGAATTCCGGTCTCCC
DNA 2: TGGTGGCTACGACGGGATT
B12: CAGGAAG (DNA:RNA)
RNA: GGGAGACCGGAAUUCAGAUUGUCCCAGGAAGUUAAAUCCCGUCGUAGCCACCA
DNA 1: CAATCTGAATTCCGGTCTCCC
DNA 2: TGGTGGCTACGACGGGATT
B13: GGCGCCG (DNA:RNA)
RNA: B12 RNA with C25G, A26G, G27C, A29C, A30C
DNA 1: CAATCTGAATTCCGGTCTCCC
DNA 2: TGGTGGCTACGACGGGATT
B14: UCGUCGC (DNA:RNA)
RNA: B1 RNA with C27G, G29C
DNA 1: CAATCTGAATTCCGGTCTCCC
DNA 2: TGGTGGCTACGACGGGATT
B15: UGGCCCA (DNA:RNA)
RNA: B12 RNA with C25U, A26G, G28C, A29C, A30C, G31A
DNA 1: CAATCTGAATTCCGGTCTCCC
DNA 2: TGGTGGCTACGACGGGATT
B16: UCGCUGU (DNA:RNA)
RNA: B1 RNA with C27G, U28C, G29U, C31U
DNA 1: CAATCTGAATTCCGGTCTCCC
DNA 2: TGGTGGCTACGACGGGATT
B17: AUUCGGG (DNA:RNA)
RNA: B1 RNA with U25A, C26U, C27U, U28C, C31G
DNA 1: CAATCTGAATTCCGGTCTCCC
DNA 2: TGGTGGCTACGACGGGATT
B18: CUUUCCU (DNA:RNA)
RNA: B12 RNA with A26U, G27U, G28U, A29C, A30C, G31U
DNA 1: CAATCTGAATTCCGGTCTCCC
DNA 2: TGGTGGCTACGACGGGATT
B19: UGUAGAU (DNA:RNA)
RNA: B1 RNA with C26G, C27U, U28A, G30A, C31U
DNA 1: CAATCTGAATTCCGGTCTCCC
DNA 2: TGGTGGCTACGACGGGATT
B20: GGAGGUG (DNA:RNA)
RNA: B12 RNA with C25G, A26G, G27A, A29G, A30U
DNA 1: CAATCTGAATTCCGGTCTCCC
DNA 2: TGGTGGCTACGACGGGATT

The assay concerns the target T1, RBFOX1 RRM RbFoxmut (Fox-RRM*). As to the kind of experiment: EMSA; HiTS-Eq, 1 nM pool, 10 min; buffer printed only for the single-RNA assays: 10 mM Tris pH 7.5, 150 mM NaCl, 3.4 mM EDTA, 0.001% NP-40, 30 C. The following applies: tags: His6 N-terminal (pET28a); label: 5' 32P. The method in brief: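 Purified RbFox RRM (wild type or mutant) was equilibrated for 10 min in 50 µL with 1 nM of a 5′-radiolabelled pool of RNA with 7 randomized nucleotides, its flanks annealed to DNA oligonucleotides, across increasing protein concentrations. Free RNA was separated by 8% native PAGE, excised, reverse-transcribed, PCR-barcoded and sequenced on an Illumina HiSeq 2500. Relative association constants came from read-count changes of each variant against the control reaction, normalised to the cognate motif.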
A general note: Mobility shift assays separate free from complexed probe on a gel.
As for B1, the binding signal is 0.128 KA relative to UGCAUGU.

Consider B2, for which the binding signal was 0.137 KA relative to UGCAUGU.

B3: the binding signal is 0.165 KA relative to UGCAUGU.

In the case of B4, the binding signal was 0.0884 KA relative to UGCAUGU.

Turning to B5, the binding signal is 0.0832 KA relative to UGCAUGU.

Turning to B6, the binding signal is 0.062 KA relative to UGCAUGU.

As for B7, the binding signal is 0.0638 KA relative to UGCAUGU.

With B8, the binding signal is 0.103 KA relative to UGCAUGU.

Regarding B9, the binding signal was 0.11 KA relative to UGCAUGU.

With B10, the binding signal was 0.0605 KA relative to UGCAUGU.

With B11, the binding signal was 0.0793 KA relative to UGCAUGU.

As for B12, the binding signal is 0.126 KA relative to UGCAUGU.

Regarding B13, the binding signal was 0.0987 KA relative to UGCAUGU.

Turning to B14, the binding signal is 0.0875 KA relative to UGCAUGU.

On to B15, for which the binding signal is 0.0677 KA relative to UGCAUGU.

As for B16, the binding signal was 0.105 KA relative to UGCAUGU.

Take B17: the binding signal is 0.0737 KA relative to UGCAUGU.

Regarding B18, the binding signal is 0.0622 KA relative to UGCAUGU.

With B19, the binding signal was 0.109 KA relative to UGCAUGU.

For B20, the binding signal was 0.142 KA relative to UGCAUGU.
